Results as given in PubChem BioAssay AID1030 (National Center for Advancing Translational Sciences (NCATS), 2008).
The campaign covered roughly 220,000 compounds. About 16,000 (7.3%) were called active. This list was built around the results that the source calls inconclusive (neither active nor inactive); the mix of calls is not that of the screen. Calls come from the whole dose curve; as a rule, active = well fitted inhibition curve with a large enough effect (not every such curve was filed as active); inconclusive = small, poorly fitted or top-dose-only effect, or another doubt; inactive = no such curve, though single readings can be large or run the other way. Where the call is inconclusive, the potency comes from a doubtful curve fit.

Biological target: Aldehyde dehydrogenase 1A1 (Homo sapiens) (UniProt P00352)
Sequence of UniProt P00352 (P00352 whole entry, looked up): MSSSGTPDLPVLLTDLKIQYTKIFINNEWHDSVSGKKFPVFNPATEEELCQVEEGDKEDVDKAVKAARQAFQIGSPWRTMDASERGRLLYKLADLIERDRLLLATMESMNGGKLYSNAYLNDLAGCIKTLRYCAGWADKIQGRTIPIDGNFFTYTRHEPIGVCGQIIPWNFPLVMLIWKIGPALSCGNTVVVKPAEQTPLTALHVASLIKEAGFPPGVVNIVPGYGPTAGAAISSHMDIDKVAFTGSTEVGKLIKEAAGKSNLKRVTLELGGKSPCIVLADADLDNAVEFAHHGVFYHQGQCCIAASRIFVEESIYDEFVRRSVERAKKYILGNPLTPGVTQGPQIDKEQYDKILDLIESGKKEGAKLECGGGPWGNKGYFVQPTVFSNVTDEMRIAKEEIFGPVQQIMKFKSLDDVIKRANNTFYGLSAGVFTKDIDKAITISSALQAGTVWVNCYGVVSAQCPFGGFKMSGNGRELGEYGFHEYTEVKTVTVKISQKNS
Assay: qHTS Assay for Inhibitors of Aldehyde Dehydrogenase 1 (ALDH1A1);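 for activity, negative = inhibition: plate controls were no enzyme wells and a reference inhibitor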
Details: Purified ALDH1A1, NADH fluorescence, propionaldehyde substrate; series mostly up to 75.3 µM; activity, negative = inhibition: at the top concentration
Potency is the fitted concentration of half-maximal effect; tags give direction and shape of the fitted curve.

activity, negative = inhibition, inactive:
CCCC[C@@H]1C[C@H]1C(NC(=O)c1ccccc1)c1ccccc1C(F)(F)F (stereo partly drawn) -0.348%
Cc1cn([C@H]2C[C@H](O)[C@@H](COC(N)=O)O2)c(=O)[nH]c1=O 19.5% [at 13.5 µM]
NC(=O)CCN1CCCCC1 3.55%
Cc1cc(-c2ccco2)n(CC(=O)NCc2ccco2)n1 7.29%
CCOC(=O)N1CCN(C(=O)c2ccc3c(=O)n(-c4cc(OC)ccc4OC)c(=S)[nH]c3c2)CC1 10.1%
COc1ccc(CCn2c(=O)[nH]c3cc(C(=O)NCCc4ccccc4)ccc3c2=O)cc1OC 13.7%
Cc1cccc(NC(=S)N(CCCN2CCOCC2)C(C)c2cc3ccccc3o2)c1C (stereo not drawn) -1.22%
CC1CCN(CC(=O)Nc2ccc(Cl)cc2[N+](=O)[O-])CC1 4.85%
COc1ccc(C)cc1NS(=O)(=O)c1ccc(NC(=O)CN(c2cc([N+](=O)[O-])ccc2C)S(C)(=O)=O)cc1 8.84%
O=C(/C=C\c1ccccc1OC(=O)c1ccccc1F)c1cc2ccccc2o1 29.9%
COc1cccc(-c2nnc(NC(=O)c3ccc(Cl)s3)o2)c1 3.58%
CC(OC(=O)CC(NC(=O)c1ccccc1Cl)c1ccccc1)C(=O)Nc1cccc(Cl)c1Cl (stereo not drawn) -1.14%
COc1ccc(C(=O)NNC(=O)CN2CCC(n3nnc4cc(F)ccc43)CC2)cc1 7.97%
COc1ccc(CNC(=O)CSc2cc(=O)n(C)c3ccccc23)cc1 -8.96%
CC(C)CN(CCC(=O)O)CC(C)C 17.5%
Cc1cccc(-n2c(C)n[nH]c2=S)c1 4.09%
COc1ccc2c(c1)C(c1ccc(C)cc1)CC(=O)O2 (stereo not drawn) 3.19% [at 120 µM]
COc1cc(C(=O)NCC(=O)N/N=C/c2ccc(OC(=O)c3ccco3)cc2)cc(OC)c1OC 6.81%
O=C(CSc1nnc(CNc2ccccc2)o1)N1CCN(C(=O)c2ccco2)CC1 16.9%
Cc1ccc(S(=O)(=O)OCC2CN3C(CCC(C)C3c3ccc(Br)cc3)C(=O)O2)cc1 (stereo not drawn) 6.53% [at 13.5 µM]

Potency, active:
CCOc1ccc(OCCCN(C)C)cc1 14.1 µM
CCOCCCNS(=O)(=O)c1cc(Br)cc2c1N(C(=O)C1CC1)CC2 10 µM
Cc1ccc(S(=O)(=O)N2CCCCC2)cc1NC(=O)c1ccc2c(=O)n3c(nc2c1)CCCCC3 14.1 µM
Cc1cc(C)nc(NS(=O)(=O)c2ccc(NC(=O)CSc3nc4ccccc4[nH]3)cc2)n1 20 µM
Cc1cccc2cc3c(nc12)SC(=NCC1CCCO1)N(Cc1ccco1)C3 (stereo not drawn) 4.47 µM
Cc1cc(C)c2c(=O)n(CC(=O)N3CCC(Cc4ccccc4)CC3)sc2n1 7.08 µM
O=C(NC1CCCC1)C(c1ccncc1)N(C(=O)c1csnn1)C1CCCC1 (stereo not drawn) 12.6 µM
CCOc1cccc2cc(C(=O)N3CCN(C/C=C/c4ccccc4)CC3)c(=O)oc12 14.1 µM
COC(=O)COc1cc(Br)c(/C=C2/SC(=O)N(CC(=O)N3CCCC3)C2=O)cc1OC 20 µM
C/C=C/c1ccc(OCCCN2C(=O)NC(C)(C)C2=O)c(OC)c1 14.1 µM
COc1ccc(S(=O)(=O)NC2CCCCC2)cc1-n1cnnn1 1.58 µM
Cn1c(COc2ccc(Cl)cc2)nnc1SCc1ncc(-c2ccccc2)o1 20 µM
O=C(CN1CCN(c2ccc(O)cc2)CC1)Nc1cc(S(=O)(=O)N2CCCC2)ccc1Cl 14.1 µM
Cc1cccc2c1N(CCOc1ccccc1)C(=O)C2=O 0.224 µM
COc1ccccc1NC(CC(=O)c1ccccc1)C(=O)OCC(=O)c1ccc(F)cc1 (stereo not drawn) 12.6 µM
CC(C)CCN1CCN(C/C=C/c2ccco2)CC1CCO (stereo not drawn) 28.2 µM

Potency, inconclusive:
CNC(=O)c1ccsc1NC(=O)c1sc2ccccc2c1Cl 28.2 µM [inhibitor, single point]
CCOC(=O)C1C(C)=C(Nc2ccc(OC)cc2)C(=O)N1c1ccc(OC)cc1 (stereo not drawn) 3.16 µM [inhibitor, full curve]
CC1CCC/C(=C\Nc2ccccc2C(=O)O)C1=O (stereo not drawn) 28.2 µM [inhibitor, partial curve]
CCc1ccc(C2C(C#N)=C(N)N(N(C)C)C3=C2C(=O)CCC3)s1 (stereo not drawn) 17.8 µM [inhibitor, partial curve]
O=C(Cc1cccs1)N1CCN(c2ccccn2)CC1 35.5 µM [inhibitor, single point]
CCOC(=O)c1ccc(Cn2c(-c3ccccc3)nnc2-c2ccccc2)o1 28.2 µM [inhibitor, single point]
O=C(CN(c1cccc(C(F)(F)F)c1)S(=O)(=O)c1ccc(Cl)c([N+](=O)[O-])c1)NCc1ccc(F)cc1 12.6 µM [inhibitor, partial curve]
COc1ccc(-c2cc(C(F)(F)F)n3nc(N)nc3n2)cc1 28.2 µM [inhibitor, partial curve]
COc1ccc(C2=NN(c3nc(C(=O)O)cs3)C(O)(C(F)(F)F)C2)c(OC)c1 (stereo not drawn) 31.6 µM [inhibitor, partial curve]
Nc1c(S(=O)(=O)c2cccs2)c2nc3ccccc3nc2n1/N=C/c1cccc(O)c1 28.2 µM [inhibitor, partial curve]
CC1CCN(C(=S)c2ccc3c(c2)OCO3)CC1 28.2 µM [inhibitor, partial curve]
CN1CCN(c2ncc3nc(-c4cccs4)c(=O)n(CCC#N)c3n2)CC1 28.2 µM [inhibitor, partial curve]
CN1CCN(C(=O)c2cnn(-c3ccccc3)c2NC(=O)c2cccs2)CC1 39.8 µM [inhibitor, single point]
Cc1cccc2nc(CSC(=N)N)c(Br)n12 28.2 µM [inhibitor, single point]
CCOc1ccccc1-n1c(CN2CCN(C(=O)c3ccco3)CC2)nc2ccccc2c1=O 28.2 µM [inhibitor, single point]
COc1ccc(C(=O)/C=C/c2ccc(F)cc2)c(OC(=O)c2ccc([N+](=O)[O-])cc2)c1 3.16 µM [inhibitor, full curve]
O=C(NCc1cccnc1)C(=O)NCC(c1ccco1)N1CCN(c2ccccc2)CC1 (stereo not drawn) 39.8 µM [inhibitor, single point]
Cc1nc(N2CCC(C)CC2)c2nnn(Cc3ccccc3)c2n1 14.1 µM [inhibitor, partial curve]
O=C1CCN(C(=O)Nc2ccccc2Cl)N1 39.8 µM [inhibitor, single point]
CC(C)C[C@@H](CC(=O)N[C@@H](CCC(=O)O)CC(=O)O)NC(=O)[C@@H]1CCCC[C@H]1NC(=O)C[C@H](CCCN)NC(=O)C[C@H](Cc1c[nH]c2ccccc12)NC(=O)[C@@H]1CNCC[C@H]1N 39.8 µM [inhibitor, single point]
O=C(O)c1ccc(C(=O)O)c(C(=O)Nc2ccc3c(c2)Cc2ccccc2-3)c1 7.08 µM [inhibitor, single point]
COc1ccc2c(c1)CC/C(=C/c1ccco1)C2=O 7.08 µM [inhibitor, single point]
NNC(=S)Nc1ccc(C(F)(F)F)cc1Cl 37.7 µM [inhibitor, single point]
O=C(Nc1ccccc1Cl)C1CCN(Cc2cnn(-c3ccccc3)c2-n2cccc2)CC1 17.8 µM [inhibitor, single point]
COCc1cc(C)nc(OCC(=O)N/N=C/c2cccc(OC)c2)c1C#N 39.8 µM [inhibitor, single point]
CC(=O)N1CCN(S(=O)(=O)c2cccc(C(=O)Nc3ccc4c(c3)CCC4)c2)CC1 22.4 µM [inhibitor, single point]
O=c1c(-c2cccs2)nc2cncnc2n1C1CC1 25.1 µM [inhibitor, partial curve]
CC(=O)N1CC=C2C(C#N)=C(N)C(C#N)(C#N)C(C)C2C1 (stereo not drawn) 20 µM [inhibitor, partial curve]
COc1cc(C2=NOC(C(=O)N3CCN(c4ccc(F)cc4)CC3)C2)cc(OC)c1OC (stereo not drawn) 39.8 µM [inhibitor, single point]
O=C(C1CCCN(S(=O)(=O)c2cccc3nsnc23)C1)N1CCc2ccccc2C1 (stereo not drawn) 39.8 µM [inhibitor, single point]
CCc1c(C)c2ccc(O)c(CN(C)C)c2oc1=O 28.2 µM [inhibitor, partial curve]
CCN1CCCC1Cn1c(-c2ccccc2)nc2c(NCCOC)nc(C)nc21 (stereo not drawn) 28.2 µM [inhibitor, partial curve]
COc1ccc(-c2cc3ccccc3oc2=O)cc1NC(=S)NC(=O)c1ccc2c(c1)OCCO2 35.5 µM [inhibitor, single point]
N#Cc1cc2c(nc1SCC(O)CS(=O)(=O)Cc1ccccc1)CCCC2 (stereo not drawn) 39.8 µM [inhibitor, single point]
O=C(NCc1cccnc1)C(=O)C1C(=O)Nc2ccccc21 (stereo not drawn) 22.4 µM [inhibitor, single point]
Cc1ccc(S(=O)(=O)OCC2CN3C(CCC(C)C3c3ccc(Br)cc3)C(=O)O2)cc1 (stereo not drawn) 2.82 µM [inhibitor, partial curve]

Potency, inactive:
N=c1nc(N2CCCCC2)cc(N)n1O
